From patent US7671062B2, “Modulators of chemokine receptor activity, crystalline forms and process” (Bristol-Myers Squibb Company, priority 2006, dated 2010) come the findings set out here.

In the test the test system is Sodium Channel, Site 2.

Like-named read-outs stand apart in the source and are kept apart here.

`CC(=O)N[C@@H]1C[C@H](N(C)C(C)C)CC[C@@H]1N1CC[C@H](Nc2ncnc3ccc(C(F)(F)F)cc23)C1=O` [Example 1, N-((1R,2S,5R)-5-(isopropyl(methyl)amino)-2-((S)-2-oxo-3-(6-(trifluoromethyl)quinazolin-4-ylamino)pyrrolidin-1-yl)cyclohexyl)acetamide]: the “Na+ channel binding (% inhibition)” value is, setting by setting: (at 10,000 nM) 0%, 10,000 nM;; (at 30,000 nM) 21%, 30,000 nM.
